Measured values reported in publication PMC3199943, “Screening the MayBridge Rule of 3 Fragment Library for Compounds That Interact with the Trypanosoma brucei myo-Inositol-3-Phosphate Synthase and/or Show Trypanocidal Activity” (Molecular Biology International, 2011).
Read-outs that look alike come from different tables or passages of the source.

Tested on: cultured bloodstream T. brucei (strain 427)
Test: microbe, parasite or virus in culture
Details: Trypanosoma brucei
[1] = read-out: T. brucei Alamar Blue
[2] = read-out: T. brucei Alamar Blue (% survival)
[3] = read-out: T. brucei Alamar Blue, Supplementary Table 1, compound 0.5 mM, percentage of controls in the absence of compound, mean ± SD (n=3) or SE (n=2)

| SMILES | viability at 500 µM [1] | also measured |
| --- | --- | --- |
| CCc1ccc(CNC)cc1 [compound 180, N‐(4‐ethylbenzyl)‐N‐methylamine] | 102 ± 4.4% | – |
| CC1(C)C=Cc2cc(C#N)ccc2O1 [compound 487, 2,2‐dimethyl‐2H‐chromene‐6‐carbonitrile] | 80.4 ± 8.8% | – |
| Nc1cccc(-n2cccc2)c1 [compound 251, 3‐(1H‐pyrrol‐1‐yl)aniline] | 29.2 ± 8.7% | – |
| Nc1cccc(-c2cncnc2)c1 [compound 353, 3‐pyrimidin‐5‐ylaniline] | 69.2 ± 4.2% | – |
| CSc1ccc(Cl)cc1N [compound 382, 5‐chloro‐2‐(methylthio)aniline] | 105 ± 13.7% | – |
| OCc1cn2ccsc2n1 [compound 221, imidazo[2,1‐b]thiazol‐6‐ylmethanol] | 97.7 ± 7% | – |
| N#Cc1ccccc1Oc1ccccc1 [compound 591, 2‐phenoxybenzonitrile] | 100 ± 1.9% | – |
| CC(=O)c1ccc(C#N)cc1 [compound 155, 4‐acetylbenzonitrile] | 99.3 ± 17.3% | – |
| NCc1ccccc1-n1cccc1 [compound 363, [2‐(1H‐pyrrol‐1‐yl)phenyl]methylamine] | 28.8 ± 7.9% | – |
| NC1Cc2ccccc2C1 [compound 104, indan‐2‐amine] | 28.9 ± 6.4% | – |
| Cc1cc(O)cc(C)c1C#N [compound 164, 4‐hydroxy‐2,6‐dimethylbenzonitrile] | 84.7 ± 2.4% | – |
| Oc1ccc(-n2ccnc2)cc1 [compound 266, 4‐(1H‐imidazol‐1‐yl)phenol] | 81.3 ± 12.5% | – |
| Cn1c(=O)cc(O)c2ccccc21 [compound 395, 4-hydroxy-1-methyl-1,2-dihydroquinolin-2-one] | 54.3 ± 16.4% | viability at 500 µM [2]: 54.3 ± 16.4% |
| Nc1ccccc1N1CCCC1 [compound 289, 2‐pyrrolidin‐1‐ylaniline] | 20.1 ± 5.4% | – |
| O=C(O)c1ccc2ccccc2n1 [compound 369, 2‐quinolinecarboxylic acid] | – | viability at 500 µM [3]: 69.2 ± 10.7% |
| Nc1cccc(-c2cccs2)c1 [compound 403, 3‐(2‐thienyl)aniline] | 32 ± 5.9% | – |
| O=C1CCOc2ccc(F)cc21 [compound 318, 6‐fluorochroman‐4‐one] | 88.6 ± 12.2% | – |
| Cn1nccc1N [compound 7, 1‐methyl‐1H‐pyrazol‐5‐ylamine] | 96.4 ± 2.6% | – |
| Cc1nn(C)c(C)c1N [compound 72, 1,3,5‐trimethyl‐1H‐pyrazol‐4‐amine] | 20.8 ± 6.2% | – |
| Cc1cc(CO)nn1C [compound 76, (1,5‐dimethyl‐1H‐pyrazol‐3‐yl)methanol] | 85.4 ± 1.3% | – |
| Fc1ccc(-n2cccc2)cc1 [compound 276, 1‐(4‐fluorophenyl)‐1H‐pyrrole] | 45.2 ± 16% | – |
| Cc1ccc2c(c1)OCO2 [compound 116, 5‐methyl‐1,3‐benzodioxole] | 115 ± 5.4% | – |
| N#Cc1cc(-c2ccccc2)oc1N [compound 477, 2‐amino‐5‐phenyl‐3‐furonitrile] | 93.4 ± 0.3% | – |
| OCc1ccc(-c2cncnc2)cc1 [compound 505, (4‐pyrimidin‐5‐ylphenyl)methanol] | 107 ± 3.1% | – |
| COC(=O)Cc1ccsc1 [compound 238, methyl 2‐(3‐thienyl)acetate] | 103 ± 4% | – |
| CCc1cccc(C(C)=O)c1 [compound 174, 1‐(3‐ethylphenyl)ethan‐1‐one] | 107 ± 13.3% | – |
| COc1ccc(C#N)cn1 [compound 108, 6‐methoxynicotinonitrile] | 108 ± 14.1% | – |

| SMILES | viability at 500 µM [1] | also measured |
| --- | --- | --- |
| c1ccc(-c2cnco2)cc1 [compound 156, 5‐phenyl‐1,3‐oxazole] | 35.1 ± 3.8% | – |
| Nc1nc(-c2ccc(O)cc2)cs1 [compound 565, 4‐(2‐amino‐1,3‐thiazol‐4‐yl)phenol] | – | viability at 500 µM [3]: 48.7 ± 19.3% |
| Cc1ccc(C(N)=O)cc1C [compound 177, 3,4‐dimethylbenzamide] | 29.9 ± 7.7% | – |
| N#Cc1ccccc1-n1cccn1 [compound 340, 2‐(1H‐pyrazol‐1‐yl)benzonitrile] | 78.8 ± 10.1% | – |
| C#Cc1ccc(OCCCC)cc1 [compound 388, 1‐butoxy‐4‐eth‐1‐ynylbenzene] | 100 ± 10.8% | – |
| CCCc1ccc(NC(C)=O)cc1 [compound 426, N1‐(4‐propylphenyl)acetamide] | 104 ± 11.3% | – |
| CC1Cc2ccccc2C1=O (stereo not shown) [compound 157, 2‐methylindan‐1‐one] | 109 ± 10.3% | – |
| NC(=S)N1CCOCC1 [compound 159, morpholine‐4‐carbothioamide] | 113 ± 16.8% | – |
| OCCc1ccc2c(c1)OCO2 [compound 321, 2‐(1,3‐benzodioxol‐5‐yl)ethanol] | 35.2 ± 14.9% | – |
| Cc1ccccc1S(N)(=O)=O [compound 355, 2‐methylbenzene‐1‐sulfonamide] | 98.8 ± 16% | – |
| Nc1ccccc1-n1cccn1 [compound 260, 2‐(1H‐pyrazol‐1‐yl)aniline] | 80.8 ± 0.7% | – |
| Nc1ccc2[nH]ncc2c1 [compound 101, 1H‐indazol‐5‐amine] | 38.2 ± 11.6% | – |
| N#Cc1cc(Cl)ccc1O [compound 218, 5‐chloro‐2‐hydroxybenzonitrile] | 92.7 ± 13.6% | – |
| Cc1ccc(N)nc1 [compound 16, 5‐methylpyridin‐2‐amine] | 66.2 ± 6.2% | – |
| O=C(O)c1ccccc1F [compound 129, 2‐fluorobenzoic acid] | – | viability at 500 µM [3]: 124 ± 7.6% |
| Nc1ccc(C(F)(F)F)cn1 [compound 283, 5‐(trifluoromethyl)pyridin‐2‐amine] | 99.7 ± 14.7% | – |
| COC(=O)c1ccc(C)c(Cl)c1 [compound 484, methyl 3‐chloro‐4‐methylbenzoate] | 98.3 ± 14% | – |
| CCc1nc(C)c[nH]1 [compound 25, 2‐ethyl‐4‐methyl‐1H‐imidazole] | 89.6 ± 2.5% | – |
| Nc1cccc(CN2CCCC2)c1 [compound 415, 3‐(pyrrolidin‐1‐ylmethyl)aniline] | 47.4 ± 18.4% | – |
| COC(=O)c1cc2ccccc2cn1 [compound 514, methyl isoquinoline‐3‐carboxylate] | 56.8 ± 18.2% | – |
| O=C(O)C1NCCS1 (stereo not shown) [compound 103, 1,3-thiazolane-2-carboxylic acid] | 77.9 ± 15.6% | viability at 500 µM [2]: 77.9 ± 15.6% |
| NC1CCN(Cc2ccccc2)CC1 [compound 548, 1‐benzylpiperidin‐4‐amine] | 39.5 ± 10.8% | – |
| COC(=O)c1ccc(F)cc1Cl [compound 531, methyl 2‐chloro‐4‐fluorobenzoate] | 104 ± 17% | – |
| OCc1nc2ccccc2s1 [compound 312, 1,3‐benzothiazol‐2‐ylmethanol] | 73.2 ± 12.2% | – |
| N#Cc1ncccc1N1CCCCC1 [compound 517, 3‐piperidin‐1‐ylpyridine‐2‐carbonitrile] | 32.2 ± 8.8% | – |
| CSc1ccccc1CN [compound 217, 2‐(methylthio)benzylamine] | 81.9 ± 10.4% | – |
| Cc1oc(-c2ccccc2)cc1CO [compound 521, (2‐methyl‐5‐phenyl‐3‐furyl)methanol] | 35 ± 3.8% | – |

| SMILES | viability at 500 µM [1] | also measured |
| --- | --- | --- |
| COC(=O)c1ccc2ncccc2c1 [compound 515, methyl quinoline‐6‐carboxylate] | 59.2 ± 1.4% | – |
| Cc1cccc(C(N)=O)c1C [compound 176, 2,3‐dimethylbenzamide] | 107 ± 12.1% | – |
| N#CCCNCc1ccco1 [compound 189, 3‐[(2‐furylmethyl)amino]propanenitrile] | 81.5 ± 19.2% | – |
| Cc1cccc(N)c1N [compound 55, 3‐methylbenzene‐1,2‐diamine] | 30.7 ± 8.3% | – |
| Cc1nc(CCN)cs1 [compound 141, 2‐(2‐methyl‐1,3‐thiazol‐4‐yl)ethylamine] | 82.8 ± 0.9% | – |
| Nc1ccc2c(c1)OCCO2 [compound 193, 2,3‐dihydro‐1,4‐benzodioxin‐6‐amine] | 29.5 ± 5.5% | – |
| OCc1ccc(-n2ccnc2)cc1 [compound 386, [4‐(1H‐imidazol‐1‐yl)phenyl]methanol] | 87.6 ± 0.2% | – |
| NC(=S)Nc1ccncc1 [compound 215, N‐(4‐pyridyl)thiourea] | 119 ± 17% | – |
| Nc1cc2ccccc2cn1 [compound 153, isoquinolin‐3‐amine] | 44.8 ± 5% | – |
| CN1CCN(C)C(CO)C1 (stereo not shown) [compound 154, (1,4‐dimethyl‐2‐piperazinyl)methanol] | 89.2 ± 16.1% | – |
| c1ccc(-c2cc[nH]n2)cc1 [compound 150, 3‐phenyl‐1H‐pyrazole] | 51.9 ± 12.6% | – |
| Oc1ccccc1N1CCOCC1 [compound 448, 2‐morpholinophenol] | 101 ± 18.8% | – |
| N#Cc1ccc(Oc2ccccn2)cc1 [compound 596, 4‐(pyridin‐2‐yloxy)benzonitrile] | 89.3 ± 9% | – |
| O=C(O)c1ccco1 [compound 27, 2‐furoic acid] | 21.3 ± 1% | – |
| Cn1ccc2ccc(C(=O)O)cc21 [compound 398, 1‐methyl‐1H‐indole‐6‐carboxylic acid] | 88.8 ± 14.9% | – |
| Cc1nc(C(N)=S)cs1 [compound 252, 2‐methyl‐1,3‐thiazole‐4‐carbothioamide] | 92.9 ± 6.6% | – |
| c1cncc(Cn2cccc2)c1 [compound 248, 3‐(1H‐pyrrol‐1‐ylmethyl)pyridine] | 72.1 ± 13.2% | – |
| CN(C)CCOc1ccc(C#N)cc1 [compound 542, 4‐[2‐(dimethylamino)ethoxy]benzonitrile] | 79.7 ± 7.3% | – |
| OCc1nccn1Cc1ccccc1 [compound 526, (1‐benzyl‐1H‐imidazol‐2‐yl)methanol] | 84.5 ± 7.1% | – |
| COC(=O)c1cscc1N [compound 244, methyl 4‐aminothiophene‐3‐carboxylate] | 39.5 ± 14.5% | – |
| N#Cc1ccc(-c2ccccc2)nc1 [compound 456, 6‐phenylnicotinonitrile] | 31.1 ± 4.1% | – |
| O=C(O)CCC(=O)c1cccs1 [compound 478, 4-oxo-4-(2-thienyl)butanoic acid] | 104 ± 13.1% | viability at 500 µM [2]: 104 ± 13.1% |
| Nc1nc(-c2ccccc2)ns1 [compound 423, 3‐phenyl‐1,2,4‐thiadiazol‐5‐amine] | 59.6 ± 12.3% | – |
| c1ccc(-c2c[nH]cn2)cc1 [compound 149, 4‐phenyl‐1H‐imidazole] | 86.3 ± 13.6% | – |
| Cc1ccc(-c2cnco2)cc1 [compound 259, 5‐(4‐methylphenyl)‐1,3‐oxazole] | 90.2 ± 12.5% | – |
